# Test results taken from PubChem BioAssay (NCATS).
# The inconclusive results got no clear call from the source; some entries with a clear call stand among them for comparison. Potencies beside an inconclusive call are fits to weak or partial responses and may not hold up. The source made the active and inactive calls. The call rests on the fitted dose curve; in most records, active means well fitted curve in the direction sought with a large enough effect; inconclusive means small, poorly fitted or top-dose-only effect, or another doubt; inactive means no such curve, though single readings can be large; an effect the other way counts as inactive or inconclusive.
# What was measured:
# [1] = qHTS of pediatric cancer cell lines to identify multiple opportunities for drug repurposing: Primary screen for OHS-50 cells (AID 1347103); conditions: OHS-50 osteosarcoma viability, CellTiter-Glo luminescence, 48 h; activity change, negative = cytotoxic: at 57.3 µM (top of the series); further: nearly all actives have a fitted effect of over 40% in size;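 on activity change, negative = cytotoxic: plate controls were DMSO neutral control for no effect and bortezomib positive control for full effect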
# Method in brief: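 Cells (500-1,000/well) rested 5 h, then received compounds for 48 h; metabolically active cells were measured by CellTiter-Glo luminescence. Final concentrations spanned up to 46 µM (MIPE, 11-point) or 0.59 nM-46 µM (NPC, 8-point) in primary screens, 11-point in follow-ups.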
# [2] = qHTS of pediatric cancer cell lines to identify multiple opportunities for drug repurposing: Primary screen for Rh30 cells (AID 1347107); further: nearly all actives have a fitted effect of over 75% in size; on activity change, negative = cytotoxic: on the % scale 0 is the no-effect control and ±100 the full control effect
# Method in brief: (§1)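 Viability after 48 h compound treatment at 37C, 500-1,000 cells/well, read as ATP luminescence with CellTiter-Glo. Primary screens used 11-point (MIPE, 0.78 nM-46 µM) or 8-point (NPC, 0.59 nM-46 µM) final concentrations; follow-up screens used 11-point dilutions.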
# [3] = qHTS of pediatric cancer cell lines to identify multiple opportunities for drug repurposing: Primary screen for Rh41 cells (AID 1347108); further: nearly all actives have a fitted effect of over 70% in size;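 on activity change, negative = cytotoxic: luminescence drop marks cytotoxic hits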
# Method in brief: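 Plated cells (500-1,000 per well, growth media) were allowed to settle for 5 hours, treated with compound dilutions for 48 hours, then lysed with CellTiter-Glo for 15 min at room temperature before luminescence reading.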
# [4] = qHTS of pediatric cancer cell lines to identify multiple opportunities for drug repurposing: Confirmatory screen for NB1643 cells (AID 1347109); conditions: NB1643 neuroblastoma cell viability; activity change, negative = cytotoxic: at 45.9 µM (top of the series) unless noted; further: nearly all actives have a fitted effect of over 45% in size;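 on activity change, negative = cytotoxic: plate controls were DMSO for no effect and bortezomib for full effect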
# Method in brief: as §1
# [5] = qHTS of pediatric cancer cell lines to identify multiple opportunities for drug repurposing: Confirmatory screen for SK-N-MC cells (AID 1347111);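 further: cells exposed to compound for 48 h before the readout; nearly all actives have a fitted effect of over 70% in size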
# Method in brief: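 SK-N-MC cells at 500-1,000 cells/well in growth media were pre-incubated 5 h, then exposed to compounds at 11-point dilutions for 48 h at 37 degrees C, 5% CO2. Viability was read as CellTiter-Glo luminescence.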
# [6] = qHTS of pediatric cancer cell lines to identify multiple opportunities for drug repurposing: Confirmatory screen for BT-12 cells (AID 1347112); further: nearly all actives have a fitted effect of over 55% in size; on activity change, negative = cytotoxic: on the % scale 0 is the no-effect control and ±100 the full control effect
# Method in brief: as §1
# [7] = qHTS of pediatric cancer cell lines to identify multiple opportunities for drug repurposing: Confirmatory screen for A673 cells (AID 1347110); further: nearly all actives have a fitted effect of over 65% in size
# Method in brief: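 A673 cells seeded at 500-1,000 cells/well, rested 5 h, then dosed; primary MIPE 11-point (0.78 nM to 46 µM), NPC (0.59 nM to 46 µM); confirmatory 11-point. CellTiter-Glo luminescence after 48 h.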
# Potency means the concentration at half of the fitted maximal effect; tags describe the fitted curve by direction and shape.
smiles,measurement,setting,value
CC(C(O)c1ccccc1)N(C)C/C=C/c1ccccc1 (stereo unspecified),Potency,[1],"inconclusive: 27.6 µM [cytotoxic, single point]"
same,Potency,[2],inactive
CCC(=O)C(CCN(C)C)(c1ccccc1)c1ccccc1,Potency,[1],"inconclusive: 11 µM [cytotoxic, partial curve]"
same,Potency,[2],inactive
same,Potency,[3],inactive
CCN(CC)CCOC(=O)C(C)(c1ccccc1)c1ccccc1,Potency,[1],"inconclusive: 17.4 µM [cytotoxic, partial curve]"
same,Potency,[3],"inconclusive: 16.8 µM [cytotoxic, single point]"
COc1cc(C[C@@H](C)N)c(OC)cc1C,Potency,[1],"inconclusive: 0.001 µM [cytotoxic, full curve]"
same,Potency,[2],inactive
CC[N+](CC)(CC)CC,Potency,[1],inactive
same,Potency,[3],inactive
O=C(O)CCCOc1ccc(Cl)cc1Cl,Potency,[1],"inconclusive: 45.5 µM [cytotoxic, partial curve, poor fit]"
same,Potency,[2],inactive
same,"activity change, negative = cytotoxic",[4],inconclusive: -37.9% [cytotoxic] [at 95.5 µM]
same,Potency,[5],active: 43.4 µM
same,Potency,[6],inactive
C[C@H](N)[C@H](O)c1ccc(O)c(O)c1,Potency,[1],inactive
same,Potency,[2],inactive
CCC(=O)OC1(c2ccccc2)CCN(C)CC1,Potency,[1],"inconclusive: 59.4 µM [cytotoxic, partial curve, poor fit]"
same,Potency,[3],"inconclusive: 50.9 µM [cytotoxic, partial curve, poor fit]"
COCC(=O)N(c1c(C)cccc1C)C(C)C(=O)OC (stereo unspecified),Potency,[1],inactive
same,Potency,[3],inactive
NCCc1cc(O)c(O)cc1O,Potency,[1],"inconclusive: 15.5 µM [cytotoxic, partial curve, poor fit]"
same,Potency,[3],inactive
O=C(CBr)Nc1ccc(Cl)cc1C(=O)c1ccccc1F,Potency,[1],"inconclusive: 30.9 µM [cytotoxic, single point]"
same,Potency,[3],inactive
O=C(N[C@H]1N=C(c2ccccc2F)c2cccc3c2N(CC3)C1=O)c1cc2ccccc2[nH]1,Potency,[1],inactive
same,Potency,[2],inactive
same,Potency,[3],inactive
O=c1[nH]c2ccccc2n1CCCN1CCC(n2c(=O)[nH]c3cc(Cl)ccc32)CC1,Potency,[1],"inconclusive: 24.6 µM [cytotoxic, single point]"
same,Potency,[3],"inconclusive: 37.2 µM [cytotoxic, partial curve, poor fit]"
same,Potency,[6],"inconclusive: 20.8 µM [cytotoxic, single point]"
CCN(CC)CCc1c[nH]c2ccccc12,Potency,[1],"inconclusive: 46.8 µM [cytotoxic, partial curve, poor fit]"
same,Potency,[3],"inconclusive: 36 µM [cytotoxic, partial curve, poor fit]"
CC[C@H]1C[C@H]2[C@@H]3CCC4=CC(=O)CC[C@@H]4[C@H]3CC[C@]2(C)[C@H]1O,Potency,[1],"inconclusive: 34.7 µM [cytotoxic, single point]"
same,Potency,[2],"inconclusive: 13.3 µM [cytotoxic, partial curve, poor fit]"
same,Potency,[3],"inconclusive: 18.8 µM [cytotoxic, partial curve, poor fit]"
CCC(C)(C)c1ccc(O)cc1,Potency,[1],"inconclusive: 24.6 µM [cytotoxic, single point]"
same,Potency,[3],inactive
CCCN(CCC)C(=O)Cc1c(-c2ccc(Cl)cc2)nc2ccc(Cl)cn12,Potency,[1],"inconclusive: 19.5 µM [cytotoxic, single point]"
same,Potency,[2],inactive
same,Potency,[3],"inconclusive: 9.44 µM [cytotoxic, partial curve]"
same,Potency,[5],"inconclusive: 9.27 µM [cytotoxic, full curve]"
CCNC(=O)CC1N=C(c2ccc(Cl)cc2)c2cc(OC)ccc2-n2c(C)nnc21 (stereo unspecified),Potency,[1],active: 21.7 µM
same,Potency,[2],"inconclusive: 20.9 µM [cytotoxic, partial curve]"
COC[C@@H](NC(C)=O)C(=O)NCc1ccccc1,Potency,[1],inactive
same,Potency,[3],inactive
same,Potency,[4],inactive
same,Potency,[5],"inconclusive: 11.7 µM [cytotoxic, single point]"
O=[N+]([O-])c1c(Cl)c(Cl)cc(Cl)c1Cl,Potency,[1],inactive
same,Potency,[4],"inconclusive: 47.9 µM [cytotoxic, single point]"
same,Potency,[7],"inconclusive: 33.9 µM [cytotoxic, partial curve, poor fit]"
CN1[C@H]2CC(O)C[C@H]1[C@H]1O[C@H]12 (stereo partly specified),Potency,[1],active: 9.68 µM
same,Potency,[2],active: 23.5 µM
same,Potency,[3],active: 23.5 µM
COc1cc(CC(C)N)cc2c1OCO2 (stereo unspecified),Potency,[1],"inconclusive: 1.18 µM [cytotoxic, full curve, poor fit]"
same,Potency,[2],inactive
C#CC(O)(C=CCl)CC (stereo unspecified),Potency,[1],inactive
same,Potency,[2],inactive
O=C(CCCN1CCC(n2c(=O)[nH]c3ccccc32)CC1)c1ccc(F)cc1,Potency,[1],"inconclusive: 15.5 µM [cytotoxic, partial curve, poor fit]"
same,Potency,[2],inactive
